Experimental findings from paper PMC4326527 are described below.

Amino acid sequences for entries named in this document (tags omitted). A change or cut given only in a name is not applied to a line headed by its entry. Chains listed by the source or under a name are the forms on record and can include a tag or linker.
USP46 amino-terminal fragment (1–164) in pNLS(SV40)-GFP (P62068, form named): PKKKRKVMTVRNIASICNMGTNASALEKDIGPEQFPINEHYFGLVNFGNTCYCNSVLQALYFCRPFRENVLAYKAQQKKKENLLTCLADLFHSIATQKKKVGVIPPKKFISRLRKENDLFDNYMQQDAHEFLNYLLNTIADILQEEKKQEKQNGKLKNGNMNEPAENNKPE
USP46 carboxy-terminal fragment (243–366) in pNLS(SV40)-GFP (P62068, form named): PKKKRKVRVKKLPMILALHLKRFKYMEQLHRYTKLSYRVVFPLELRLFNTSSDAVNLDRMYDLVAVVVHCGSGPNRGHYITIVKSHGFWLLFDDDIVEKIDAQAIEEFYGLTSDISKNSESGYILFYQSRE
UniProt Q8TAF3: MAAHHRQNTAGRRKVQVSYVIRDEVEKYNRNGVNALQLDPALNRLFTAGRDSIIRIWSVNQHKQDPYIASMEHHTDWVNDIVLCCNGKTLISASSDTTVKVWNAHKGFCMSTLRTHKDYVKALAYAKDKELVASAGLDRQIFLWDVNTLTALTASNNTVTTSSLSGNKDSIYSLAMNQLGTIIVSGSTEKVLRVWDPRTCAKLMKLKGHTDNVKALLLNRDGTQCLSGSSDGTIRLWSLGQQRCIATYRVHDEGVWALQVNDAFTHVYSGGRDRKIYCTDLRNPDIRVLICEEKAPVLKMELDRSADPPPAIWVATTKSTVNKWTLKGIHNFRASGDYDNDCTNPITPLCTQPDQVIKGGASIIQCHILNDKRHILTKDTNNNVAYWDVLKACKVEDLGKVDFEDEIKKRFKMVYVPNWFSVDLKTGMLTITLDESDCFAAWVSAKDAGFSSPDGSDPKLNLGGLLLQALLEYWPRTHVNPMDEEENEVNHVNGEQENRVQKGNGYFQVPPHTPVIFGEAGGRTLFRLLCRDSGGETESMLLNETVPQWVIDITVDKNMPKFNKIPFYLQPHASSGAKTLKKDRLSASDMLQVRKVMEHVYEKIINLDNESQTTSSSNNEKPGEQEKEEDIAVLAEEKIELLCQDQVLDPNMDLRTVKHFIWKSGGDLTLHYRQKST

Test in all cases: nuclear relocation assay; 293T cells co-transfected with UAF1-mRFP and a GFP- or YFP-tagged nuclear DUB variant; nuclear accumulation of UAF1-mRFP seen by confocal microscopy in fixed cells (live cells too for USP1 WT, S313A, S313D; also after USP1 siRNA)
Assay [1] addresses USP46 amino-terminal fragment (1–164) in pNLS(SV40)-GFP (Simian virus 40 | not stated) (UniProt P62068).
The target in assay [2] is USP46 carboxy-terminal fragment (243–366) in pNLS(SV40)-GFP (Simian virus 40 | not stated) (UniProt P62068).
The target in a further assay is T1, GFP-USP1^A676T (human) (UniProt O94782).
T1 sequence: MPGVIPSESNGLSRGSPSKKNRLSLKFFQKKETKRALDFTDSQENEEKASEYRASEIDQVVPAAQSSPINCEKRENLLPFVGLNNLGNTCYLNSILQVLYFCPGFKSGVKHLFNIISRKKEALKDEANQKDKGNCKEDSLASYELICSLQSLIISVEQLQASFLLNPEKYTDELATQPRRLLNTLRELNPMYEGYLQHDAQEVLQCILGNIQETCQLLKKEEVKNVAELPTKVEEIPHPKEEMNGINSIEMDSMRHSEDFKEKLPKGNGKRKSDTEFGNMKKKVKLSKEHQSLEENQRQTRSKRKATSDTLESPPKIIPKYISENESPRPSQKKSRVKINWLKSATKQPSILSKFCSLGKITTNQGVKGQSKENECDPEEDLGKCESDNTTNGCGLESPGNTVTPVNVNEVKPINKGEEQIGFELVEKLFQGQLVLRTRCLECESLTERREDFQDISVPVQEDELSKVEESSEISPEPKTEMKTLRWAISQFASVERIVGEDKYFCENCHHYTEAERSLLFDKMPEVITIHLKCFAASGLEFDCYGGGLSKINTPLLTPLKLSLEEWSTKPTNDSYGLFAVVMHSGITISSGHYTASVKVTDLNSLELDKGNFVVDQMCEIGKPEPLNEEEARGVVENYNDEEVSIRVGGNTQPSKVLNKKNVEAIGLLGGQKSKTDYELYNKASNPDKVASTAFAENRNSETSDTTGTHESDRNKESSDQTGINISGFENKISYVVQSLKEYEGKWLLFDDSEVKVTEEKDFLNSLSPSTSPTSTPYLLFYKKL

For assay [3], the target named is T2, GFP-USP1 wild type (human) (UniProt O94782).
T2 sequence: T1 sequence with T676A

Another assay deals with T3, GFP-USP1^G667A (human) (UniProt O94782).
T3 sequence: T1 sequence with G667A, T676A

Positions count from the first letter of the chain named. Results are given in words; binding and its absence hold for the method and conditions named. Some entries that bind do so weakly or less than the wild type. For some assays here: Where a sequence is shown, tags or fusion partners need not be part of it.

In the case of UAF1-mRFP (from UniProt Q8TAF3 1-677), the binding result in assay [1] is reported as “no binding”; in assay [2], “no binding”; with GFP-USP1^A676T (human) it was “binds”; in assay [3] it was “binds”; with GFP-USP1^G667A (human) it was “binds”.
